# Experimental data: PubChem BioAssay AID743279 (National Center for Advancing Translational Sciences (NCATS), 2014)
# In all, about 360,000 compounds went through this assay and about 17,000 (4.7%) were called active. Inconclusive results, whose numbers are uncertain, are shown with a selection of clear calls. Rule as the data show it: active = activity change below about -50%; inconclusive = mostly about -30% to -49%; inactive = weaker than that.
# Assay: qHTS for Inhibitors of Inflammasome Signaling: IL-1-beta AlphaLISA Primary Screen
# Conditions: THP-1 LPS/ATP IL-1B secretion, 16 h; at 57.5 µM, stronger effect = lower value
# How it was run: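 THP-1 cells pretreated 1 hr with compounds (up to 57.5 uM final), then stimulated with LPS (250 ng/mL final) plus ATP (1.25 mM final); secreted IL-1B measured by AlphaLISA after 16 hr, decreased signal indicating inhibition.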
# % is scaled to controls: 0 for no effect and ±100 for the full control effect.
row,Structure (SMILES),activity change
1,N#C/C(=C\c1ccncc1)c1ccccn1,active: -100%
2,Cc1cc(C(=O)COc2ccc(Cl)cc2Br)c(C)n1C,inconclusive: -30.7%
3,COc1cc(/C=N/NC(=O)NC23CC4CC(CC(C4)C2)C3)ccc1O,inconclusive: -42.4%
4,Cn1c(C(=O)NCC2CCCO2)cc2oc3ccccc3c21 (stereo unspecified),inconclusive: -40.1%
5,CCOC(=O)c1c(-c2ccccc2)oc2ccc(O)c(CN(C)C)c12,inconclusive: -34.3%
6,c1ccc(CN2CCN(c3nc(-c4ccccc4)nc4ccccc34)CC2)cc1,inconclusive: -36.2%
7,O=C(CSc1nccn1-c1ccccc1)Nc1ccc2c(c1)OCO2,inconclusive: -35.3%
8,CC(C)(C)c1cc(C(=O)NCCN2CCCC2)cc(C(C)(C)C)c1,inconclusive: -47.8%
9,O=c1c2c(nc3cc(-c4cccc(Cl)c4)[nH]n13)CCCC2,active: -102%
10,O=C(N/N=C\C=C\c1ccc2c(c1)OCO2)c1ccc(F)cc1,inactive: -16.4%
11,Cc1cc2c(cc1S(=O)(=O)CCC(=O)N(C)C1CCCCC1)OCC(=O)N2,inactive: -13.2%
12,CCOc1ccc(N(C(=O)c2snc(C(N)=O)c2N)C(C(=O)NCC2CCCO2)c2ccco2)cc1 (stereo unspecified),inactive: -7.04%
13,COc1cccc(Nc2nc3ccc(OC)cc3s2)c1,active: -172%
14,O=C(CCS(=O)(=O)Cc1ccc(Cl)cc1)NCCCN1CCN(c2ccccc2F)CC1,inconclusive: -31.1%
15,Cn1c(NN)nc2c1c(=O)n(Cc1ccccc1)c(=O)n2C,inconclusive: -31.2%
16,Cc1ccc(CSC(Nc2ccc(F)cc2)=C(C#N)C#N)cc1,active: -56.8%
17,CC(C)N(C(=O)[C@H]1CC(CC(=O)NCCC2=CCCCC2)C(=O)N2CCc3c([nH]c4ccccc34)[C@]12C)C(C)C (stereo partly specified),inconclusive: -42.2%
18,Cc1ccccc1C(=O)NCC(=O)Nc1ccc(C)c(S(=O)(=O)N2CCCCCC2)c1,inactive: -4.11%
19,CC(C)(C)NC(=O)C(c1ccc(O)cc1)N(Cc1ccc2c(c1)OCO2)C(=O)CCl (stereo unspecified),inactive: 11%

row,Structure (SMILES),activity change
1,FC(F)(F)c1nnc(N2CCN(c3ccc(Cl)cc3)CC2)s1,inconclusive: -33.2%
2,CC[C@]12c3[nH]c4ccc(OC)cc4c3CCN1C(=O)C(CC(=O)NCc1ccc(OC)c(OC)c1)C[C@@H]2C(=O)N1CCN(C(=O)C2CC2)CC1 (stereo partly specified),inactive: -4.65%
3,COc1ccc(CNc2ccc(Cl)cc2)cc1Cn1ccnc1,active: -70.8%
4,COc1ccc([N+](=O)[O-])cc1C(=O)NC1CCN(Cc2ccccc2)CC1,inconclusive: -32.4%
5,COc1ccccc1NC1=C(Cl)C(=O)N(c2ccccc2)C1=O,inactive: 23%
6,O=C(CSc1ccccc1C(=O)NCc1ccccc1)NC12CC3CC(CC(C3)C1)C2,inconclusive: -34%
7,O=C(NCc1ccccc1)c1ccc(CSc2ccccc2)o1,active: -90.5%
8,O/N=C/c1cn(-c2ccccc2)nc1-c1cccnc1,inconclusive: -42.9%
9,CCC1=C(OC(=O)N(CC)CC)N2C(=O)OC(=NCC3CC3)[C@]2(Cc2ccccc2)[C@H]2C1=CC[C@H]1C(=O)N(CC)C(=O)[C@H]12,inconclusive: -31.6%
10,CCCNC(=O)Nc1nnc(C2CC2)s1,inactive: 14%
11,CCc1ccc(/C=C/c2c([N+](=O)[O-])c(=O)n(C)c(=O)n2C)cc1,active: -98.4%
12,COc1ccc(OC)c(NC(=O)CSc2nc3ccccc3c(=O)n2CCNC(C)=O)c1,inconclusive: -36.3%
13,COc1ccc(OC)c(NC(=O)c2nc(S(=O)(=O)Cc3ccccc3)ncc2Cl)c1,active: -102%
14,NC(=O)c1ccsc1NC(=O)CCS(=O)(=O)c1ccccc1,inactive: 13.1%
15,Cc1ccc(S(=O)(=O)N2CCN(C(C(=O)Nc3ccc(F)cc3)c3ccccc3)CC2)cc1 (stereo unspecified),inactive: -13.8%
16,COc1ccccc1-c1cccc(-c2nc(C(=O)Nc3nccs3)cc3c2[C@H](CCO)N(C(C)=O)C3)c1,inconclusive: -49.1%
17,Cc1ccc(C(=O)NCc2ccncc2)cc1S(=O)(=O)Nc1cccc(C)c1C,inactive: 5.87%
18,CCCCc1cc(O)c(CCCC)c(O)c1,inconclusive: -35.6%
19,CCS(=O)(=O)N1CCC(C(=O)NCCc2ccccc2)CC1,inactive: 4.98%

row,Structure (SMILES),activity change
1,COc1ccccc1-c1ccc(Nc2cccc(C(C)=O)c2)nn1,inconclusive: -35.5%
2,Fc1ccccc1NC(=S)N1CCN(C/C=C/c2ccccc2)CC1,inactive: -22.9%
3,Cc1ccc(NC(=O)c2cc(-c3cccs3)nc3ccccc23)nc1,inconclusive: -47.5%
4,Oc1ccccc1/C=N/NC(=S)NC1CC2C=CC1C2 (stereo unspecified),active: -100%
5,Cc1ccc(OCC(=O)Nc2cccc(O)c2)cc1C,inconclusive: -30.5%
6,COc1cc(OC)cc(C(=O)N2CCN(C(=O)c3ccc(-c4ccccc4)cc3)CC2)c1,active: -68%
7,Cc1[nH]n(-c2ccccc2)c(=O)c1/C=N/NC(=O)c1ccc(O)cc1O,inactive: 61%
8,O=C(CSc1nc(-c2ccccc2)ns1)N1CCOCC1,inactive: -12.3%
9,O=C(Nc1ccc(-n2cccn2)cc1)C1CCCCN1Cc1cccc2cccnc12 (stereo unspecified),active: -50.3%
10,COc1cc2c(c(OC)c1OC)-c1ccc(SC)c(=O)cc1C(NC(=O)c1ccccc1)CC2 (stereo unspecified),inconclusive: -30.9%
11,COc1ccc(C(CC(=O)N2CCCC2)c2c(OC)cc(OC)c3ccc(=O)oc23)cc1 (stereo unspecified),inactive: 6.69%
12,O=S(=O)(c1cccc(-c2csc(N/N=C/c3ccco3)n2)c1)N1CCOCC1,active: -71.6%
13,O=C(O)C(C1CCCCC1)C1(O)CCCC1 (stereo unspecified),inactive: -7.54%
14,CC(NC(=O)COC(=O)c1cc(Cl)ccc1O)C1CC2CCC1C2 (stereo unspecified),inconclusive: -30.3%
15,O=c1[nH]c(-c2ccccc2)nn1-c1ccc(Br)cc1Br,inconclusive: -30.1%
16,O=C(NCc1ccccc1)c1ccc2nnsc2c1,inactive: 4.18%
17,CCCCN(CC)C(=S)Nc1ccc2nc(N3CCN(C)CC3)cc(C)c2c1,inconclusive: -43.1%
18,C=CCn1c(SCC(C)=O)nc2scc(-c3ccc(C)o3)c2c1=O,inactive: -21.3%
